# Assay results taken from article PMC4336329 (PLoS ONE, 2015).
# About 2,200 (0.71%) of roughly 310,000 compounds showed an effect of 50% or more. Effects have a minus sign here. The list shows a part of the results.
# Molecular target: human ether-à-go-go-related gene (hERG) potassium channel (human, UniProt Q12809)
# Assay: primary screen, population patch clamp on CHO cells stably expressing hERG
# human ether-à-go-go-related gene (hERG) potassium channel, sequence (Q12809 whole entry, looked up): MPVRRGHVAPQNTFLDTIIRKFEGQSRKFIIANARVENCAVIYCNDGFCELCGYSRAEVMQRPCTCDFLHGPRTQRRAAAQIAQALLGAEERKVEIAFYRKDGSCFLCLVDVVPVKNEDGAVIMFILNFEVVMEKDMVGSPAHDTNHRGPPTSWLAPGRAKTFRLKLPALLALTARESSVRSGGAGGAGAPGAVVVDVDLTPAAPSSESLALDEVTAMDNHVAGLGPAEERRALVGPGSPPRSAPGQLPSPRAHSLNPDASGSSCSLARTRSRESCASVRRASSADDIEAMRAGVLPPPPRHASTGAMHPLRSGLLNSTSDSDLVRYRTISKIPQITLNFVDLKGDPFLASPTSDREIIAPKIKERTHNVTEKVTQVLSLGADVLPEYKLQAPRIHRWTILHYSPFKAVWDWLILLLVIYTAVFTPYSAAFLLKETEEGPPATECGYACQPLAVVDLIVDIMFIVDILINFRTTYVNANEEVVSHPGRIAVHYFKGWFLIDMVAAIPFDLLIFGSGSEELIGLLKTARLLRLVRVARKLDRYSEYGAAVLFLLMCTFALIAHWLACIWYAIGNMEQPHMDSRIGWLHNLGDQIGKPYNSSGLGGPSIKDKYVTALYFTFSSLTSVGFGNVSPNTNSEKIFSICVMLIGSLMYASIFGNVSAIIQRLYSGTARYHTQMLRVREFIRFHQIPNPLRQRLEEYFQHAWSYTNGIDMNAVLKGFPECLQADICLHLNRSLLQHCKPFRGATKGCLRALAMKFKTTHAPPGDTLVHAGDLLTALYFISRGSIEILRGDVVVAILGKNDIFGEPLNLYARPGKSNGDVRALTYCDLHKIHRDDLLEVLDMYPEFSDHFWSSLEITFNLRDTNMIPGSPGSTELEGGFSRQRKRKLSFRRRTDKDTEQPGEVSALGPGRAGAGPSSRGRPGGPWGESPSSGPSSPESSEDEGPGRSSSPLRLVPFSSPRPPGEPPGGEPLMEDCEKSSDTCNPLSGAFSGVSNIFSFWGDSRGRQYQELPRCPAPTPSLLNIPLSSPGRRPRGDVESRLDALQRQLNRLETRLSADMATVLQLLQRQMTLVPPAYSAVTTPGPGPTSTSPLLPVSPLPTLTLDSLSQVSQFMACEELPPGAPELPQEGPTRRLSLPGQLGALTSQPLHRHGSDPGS
row,SMILES,"hERG current change (%, negative = inhibition) at 1uM"
1,CCOc1ccc(NCc2cccn2-c2nnc(N3CCC(C(=O)NCCCN4CCCCC4CC)CC3)s2)cc1 (centres unmarked),-1.84%
2,Cc1ccc(S(=O)(=O)N2CCN(C(=O)c3c(-c4ccccc4)noc3C)CC2)c(C)c1,-7.79%
3,CCOc1ccccc1NS(=O)(=O)c1cccc2nsnc12,3.49%
4,CCN(C1CCCCC1)S(=O)(=O)c1ccc(S(=O)(=O)N2CCN(CCC#N)CC2)cc1,5%
5,COCCCN(Cc1cccs1)S(=O)(=O)c1csc(C(N)=O)c1,13%
6,O=Cc1ccc(C(=O)OCC(=O)N2CCCC2)cc1,15.2%
7,Cc1cc(C)c(C#N)c(Nc2ccccc2C)n1,11.6%
8,CC(C)CC(=O)NC(=S)Nc1ccc(NC(=O)c2ccco2)cc1,18.2%
9,O=C(CSc1nn(-c2ccccc2)c(=S)s1)Nn1cnnc1,8.5%
10,O=C(NCCCN1CCCC1=O)c1ccc(Cl)c(S(=O)(=O)N2CCCCC2)c1,9.57%
11,CCc1cc2c(nc1CC)CCN(CC/C(C)=N/O[C@@H](C)c1cc(-c3c(C)cc(C)cc3C)no1)C2,6.45%
12,CCOC(=O)C1=C(C)NC(=O)CC1c1ccccc1 (centres unmarked),8.94%
13,COc1ccc(C)cc1N(C(=O)c1cccc(F)c1)c1nc2ccccc2s1,-6.86%
14,CC(CC(=O)Nc1ncc([N+](=O)[O-])s1)c1ccccc1 (centres unmarked),6.02%
15,CC(=O)c1ccc(N2CCN(C(=O)c3ccc(NC(=O)C4CCCO4)cc3)CC2)cc1 (centres unmarked),3.59%
16,CC(C)CNC(=S)N(CCN(C)C)Cc1cc2cc3c(cc2[nH]c1=O)OCCO3,10.1%
17,COc1ccc(-c2cc(C(=O)NN)n(-c3ccccc3)n2)cc1,-5.62%
18,OCCNc1nc2ccccc2n1-c1ccccc1,9.72%
19,CCOc1ccc(C2=[N+]([O-])C(C)(C)N(O)C2(C)C)cc1,12.3%
20,CCn1c(SCC(=O)NC2CCCCC2C)nnc1-c1ccc(OC)cc1 (centres unmarked),2.58%
21,Cc1nccn1CCc1n[nH]c(=S)n1Cc1ccccc1,-2.64%
22,COc1ccccc1Oc1ccc(NC(=O)c2ccc(Cl)cc2)cc1,13.3%

row,SMILES,"hERG current change (%, negative = inhibition) at 1uM"
1,COc1ccc(C2C(C(=O)OCC(=O)N3CCCCC3)CCC(=O)N2c2ccc(OC)cc2)cc1 (centres unmarked),4.82%
2,Cc1nn(C)cc1CNC(=O)c1cccc(Cl)c1,5.44%
3,COc1ccccc1NC(=O)NCCN1CCN(c2cccc(Cl)c2)CC1,3.67%
4,CCOc1ccccc1Nc1nc(N)nc(CN2CCCCC2C)n1 (centres unmarked),-9.01%
5,Br.Cc1cccc(N2C(=O)SC(SC(=Nc3ccccc3)Nc3ccccc3)C2=O)c1 (centres unmarked),15.4%
6,O=C1CCCC2=C1C(c1ccc(Cl)cc1)C1C(=O)c3ccccc3C1=N2 (centres unmarked),-5.98%
7,COc1ccc(OC2CCN(S(=O)(=O)c3ccc(OC)c(OC)c3)CC2)cc1,-1.03%
8,COc1cc2c(cc1OC)C(c1cccs1)N(C(=O)c1cccnc1)CC2 (centres unmarked),-22.2%
9,O=C(Nc1ccccc1C(=O)N1CCOCC1)C1CC(=O)N(c2ccc(F)cc2)C1 (centres unmarked),7.58%
10,Cc1ccsc1C1NC(=O)c2c(sc3c2CCN(C)C3)N1 (centres unmarked),-1.97%
11,COc1cc2c(cc1OC)/C(=C/C(=O)c1ccc(F)cc1)NCC2,11.1%
12,O=C(CNC(=O)c1ccc(-c2ccccc2)cc1)OCc1c(F)cccc1Cl,5.9%
13,Cc1ccc(C2C(C#N)=C(N)SC(N)=C2C#N)o1,0.166%
14,Cc1cc([N+](=O)[O-])nn1CCCC(=O)NC(C)c1ccccc1 (centres unmarked),2.3%
15,Cc1coc2cc3oc(=O)c(CCC(=O)NCCCn4ccnc4)c(C)c3cc12,-15.1%
16,CN(CC(=O)NC1CCCCC1)S(=O)(=O)c1ccc(Br)s1,10.5%
17,CC1=C(C(N)=O)C(c2sccc2C)n2nnnc2N1 (centres unmarked),6.11%
18,O=C(CCl)N(c1ccccc1)C1CCS(=O)(=O)C1 (centres unmarked),6.05%
19,CC1CCC2(CC1)NC(=O)N(CC(=O)Nc1cccc(C#N)c1)C2=O (centres unmarked),6.35%
20,CC(C)(C)N(Cc1cc2ccccc2[nH]c1=O)C(=O)C1CCCCC1,-0.0289%
21,C/C(=N\NC(=O)c1nnn(-c2nonc2N)c1CSc1ccc(C)cc1)c1ccco1,-12.6%
22,Cc1cccc(OCCCCN2CCNCC2)c1,0.159%
